This is one part of the list.
What was measured:
Experiment in all cases: glycan array binding signal (z-score within array); higher = stronger binding
Conditions in all cases: glycan notation: IUPAC condensed, linker removed
[1] = target: GalNAc(a1-3)GalNAc(b1-3)Gal(a1-4)Gal(b1-4)GlcNAc
Outline: (§1)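 Glycan array binding is given as a within-array Z-score, which can be read as non-binding when negative. The arrays, 3228 of them, came from the Consortium for Functional Glycomics database and were retained only where the protein sequence was available. Z-scores were averaged across arrays of the same protein sequence at different concentrations or buffers and across linkers.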

GalNAc(b1-3)Gal = target: GalNAc(b1-3)Gal
Outline: as §1

[2] = target: GalNAc(b1-3)Gal(a1-4)Gal(b1-4)GlcNAc
Outline: as §1

[3] = target: GalNAc(b1-3)Gal(a1-4)Gal(b1-4)GlcNAc(b1-3)Gal(b1-4)Glc
Outline: as §1

[4] = target: GalNAc(b1-3)Gal(a1-6)Gal(b1-4)Glc
Outline: as §1

GalNAc(b1-3)GalNAc = target: GalNAc(b1-3)GalNAc
Outline: as §1

GalNAc(b1-3)GlcNAc = target: GalNAc(b1-3)GlcNAc
Outline: as §1

GalNAc(b1-4)Gal(b1-4)Glc = target: GalNAc(b1-4)Gal(b1-4)Glc
Outline: as §1

GalNAc(b1-4)GlcNAc = target: GalNAc(b1-4)GlcNAc
Outline: as §1

[5] = target: GalNAc(b1-4)GlcNAc(b1-2)Man
Outline: as §1

[6] = target: GalNAc(b1-4)GlcNAc(b1-2)Man(a1-3)[GalNAc(b1-4)GlcNAc(b1-2)Man(a1-6)]Man(b1-4)GlcNAc(b1-4)GlcNAc
Outline: as §1

[7] = target: GalNAc(b1-4)GlcNAc(b1-3)GalNAc(b1-4)GlcNAc
Outline: as §1

GalNAc(b1-4)GlcNAc6S = target: GalNAc(b1-4)GlcNAc6S
Outline: as §1

GalNAc(b1-6)GalNAc = target: GalNAc(b1-6)GalNAc
Outline: as §1

GalNAc3S(b1-4)GlcNAc = target: GalNAc3S(b1-4)GlcNAc
Outline: as §1

GalNAc3S(b1-4)GlcNAc3S = target: GalNAc3S(b1-4)GlcNAc3S
Outline: as §1

[8] = target: GalNAc3S(b1-4)[Fuc(a1-3)]GlcNAc
Outline: as §1

GalNAc4S6S(b1-4)GlcNAc = target: GalNAc4S6S(b1-4)GlcNAc
Outline: as §1

GalNAc6S(b1-4)GlcNAc = target: GalNAc6S(b1-4)GlcNAc
Outline: as §1

Glc(a1-4)Glc = target: Glc(a1-4)Glc
Outline: as §1

[9] = target: Glc(a1-4)Glc(a1-4)Glc(a1-4)Glc
Outline: as §1

Glc(a1-6)Glc(a1-6)Glc = target: Glc(a1-6)Glc(a1-6)Glc
Outline: as §1

[10] = target: Glc(a1-6)Glc(a1-6)Glc(a1-6)Glc
Outline: as §1

Glc(b1-4)Glc = target: Glc(b1-4)Glc
Outline: as §1

Glc(b1-6)Glc = target: Glc(b1-6)Glc
Outline: as §1

GlcA(b1-3)Gal = target: GlcA(b1-3)Gal
Outline: as §1

GlcA(b1-3)GlcNAc = target: GlcA(b1-3)GlcNAc
Outline: as §1

GlcA(b1-6)Gal = target: GlcA(b1-6)Gal
Outline: as §1

[11] = target: GlcA3S(b1-3)Gal(b1-4)GlcNAc(b1-2)Man
Outline: as §1

[12] = target: GlcA3S(b1-3)Gal(b1-4)GlcNAc(b1-3)Gal(b1-4)Glc
Outline: as §1

[13] = target: GlcNAc(a1-3)Gal(b1-4)GlcNAc
Outline: as §1

[14] = target: GlcNAc(a1-4)Gal(b1-3)GlcNAc
Outline: as §1

[15] = target: GlcNAc(a1-4)Gal(b1-4)GalNAc
Outline: as §1

[16] = target: GlcNAc(a1-4)Gal(b1-4)GlcNAc
Outline: as §1

[17] = target: GlcNAc(a1-4)Gal(b1-4)GlcNAc(b1-3)Gal(b1-4)Glc
Outline: as §1

[18] = target: GlcNAc(a1-4)Gal(b1-4)GlcNAc(b1-3)Gal(b1-4)GlcNAc
Outline: as §1

[19] = target: GlcNAc(a1-4)Gal(b1-4)GlcNAc(b1-3)Gal(b1-4)GlcNAc(b1-3)Gal(b1-4)GlcNAc
Outline: as §1

[20] = target: GlcNAc(a1-4)Gal(b1-4)GlcNAc(b1-3)Gal(b1-4)[Fuc(a1-3)]GlcNAc(b1-3)Gal(b1-4)[Fuc(a1-3)]GlcNAc
Outline: as §1

B1: AT5G01260(PC)(40) (Arabidopsis thaliana), Q9LFB0 (protein)
chain: MIGIGRTLTSSSPSKIILEDLPPGIYRYGTEIFTSVPRKTFHHIKFLRLDSAQSSRILKPVPLRSSSIKDSQVNVEDEEIEASNKTVRVRFQLRKECVFGEHFFIVGDDPVFGGLWDPETALPLNWSDGNVWTVDLDLPVGRLVEFKLLLKAQTGEILWQPGPNRALETWETNKTIRICEDWDNADLQMMIEEDFVPYTNISSIGSEDEDEVLGSVQQNSSVVAVENAGYVSDESAQNSSFSIQSEKTMEPSNGALTAREVIKEAMFTEEESPVLVPGLIPLSDLDNEQVEVINEGKAETFPEVDKKQEPKAERNKKAKVKAISLFEKSEQEAVKSVEQRQYNAVEEEQQRLETEPLGTPDVLFENDIQWGRRTLYKLLSNFRLF
glycan array binding signal (z-score) [1]: -0.574
glycan array binding signal (z-score) (GalNAc(b1-3)Gal): -0.032
glycan array binding signal (z-score) [2]: 2.47
glycan array binding signal (z-score) [3]: -0.717
glycan array binding signal (z-score) [4]: -0.39
glycan array binding signal (z-score) (GalNAc(b1-3)GalNAc): -0.797
glycan array binding signal (z-score) (GalNAc(b1-3)GlcNAc): 0.162
glycan array binding signal (z-score) (GalNAc(b1-4)Gal(b1-4)Glc): -0.139
glycan array binding signal (z-score) (GalNAc(b1-4)GlcNAc): 8.76
glycan array binding signal (z-score) [5]: -0.345
glycan array binding signal (z-score) [6]: -0.301
glycan array binding signal (z-score) [7]: -0.883
glycan array binding signal (z-score) (GalNAc(b1-4)GlcNAc6S): -0.442
glycan array binding signal (z-score) (GalNAc(b1-6)GalNAc): -0.477
glycan array binding signal (z-score) (GalNAc3S(b1-4)GlcNAc): 0.056
glycan array binding signal (z-score) (GalNAc3S(b1-4)GlcNAc3S): -0.252
glycan array binding signal (z-score) [8]: -0.85
glycan array binding signal (z-score) (GalNAc4S6S(b1-4)GlcNAc): -0.439
glycan array binding signal (z-score) (GalNAc6S(b1-4)GlcNAc): 0.189
glycan array binding signal (z-score) (Glc(a1-4)Glc): 0.056
glycan array binding signal (z-score) [9]: -0.311
glycan array binding signal (z-score) (Glc(a1-6)Glc(a1-6)Glc): 0.361
glycan array binding signal (z-score) [10]: -0.339
glycan array binding signal (z-score) (Glc(b1-4)Glc): 0.511
glycan array binding signal (z-score) (Glc(b1-6)Glc): -0.237
glycan array binding signal (z-score) (GlcA(b1-3)Gal): 0.174
glycan array binding signal (z-score) (GlcA(b1-3)GlcNAc): -0.356
glycan array binding signal (z-score) (GlcA(b1-6)Gal): -0.401
glycan array binding signal (z-score) [11]: -0.145
glycan array binding signal (z-score) [12]: -0.282
glycan array binding signal (z-score) [13]: -0.525
glycan array binding signal (z-score) [14]: 0.079
glycan array binding signal (z-score) [15]: -0.422
glycan array binding signal (z-score) [16]: -0.188
glycan array binding signal (z-score) [17]: -0.389
glycan array binding signal (z-score) [18]: 0.055
glycan array binding signal (z-score) [19]: -0.241
glycan array binding signal (z-score) [20]: 0.564
